The campaign covered roughly 330,000 compounds. About 4,200 (1.3%) were called active. This list was built around the results that the source calls inconclusive (neither active nor inactive); the mix of calls is not that of the screen. Calls come from the whole dose curve; as a rule, active = well fitted activation curve with a large enough effect; inconclusive = small, poorly fitted or top-dose-only effect; inactive = no such curve, though single readings can be large or run the other way. Where the call is inconclusive, the potency comes from a doubtful curve fit.
Test: qHTS screen for small molecules that induce genotoxicity in human embryonic kidney (HEK293T) cells expressing luciferase-tagged ELG1; note: nearly all actives have a fitted effect of over 60% in size
Details: HEK293T ELG1-luciferase reporter, luminescence, 16 h; series mostly up to 46 µM
Procedure, shortened: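 Cells (2,000/well) expressing the ELG1-luciferase fusion are dosed by pin tool and kept 16 hr at 37 °C, 5% CO2. Signal comes from ONE-Glo luciferase reagent after 30 min at room temperature.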
Potency is the fitted concentration of half-maximal effect; tags give direction and shape of the fitted curve.

SMILES	Potency
Cc1ccc(C(=O)/C=C/Nc2cccc(O)c2)cc1	active: 4.11 µM
COc1cc(/C=C2\SC(N)=NC2=O)ccc1OCC(=O)Nc1ccccc1C	inconclusive: 16.4 µM [activator, partial curve, poor fit]
Cc1ccc2nc(-c3ccc(Br)cc3)cn2c1	inconclusive: 0.164 µM [activator, full curve, poor fit]
Nc1nc(COc2ccc(Cl)cc2)cs1	inconclusive: 18.3 µM [activator, single point]
Cc1c(C)c2ccc(OC3CCCCC3=O)cc2oc1=O (centres undefined)	inconclusive: 20.6 µM [activator, single point]
COc1c(C(=O)Nc2nnc(C3CC3)s2)csc1Cl	inconclusive: 9.2 µM [activator, partial curve]
O=C(Nc1nc(-c2ccco2)c(-c2ccco2)s1)C1CC(=O)N(c2ccc3c(c2)OCCO3)C1 (centres undefined)	inactive
Cc1cc(/C=N/NC(=O)c2cccnc2)c(C)n1CC(C)C	inconclusive: 20.6 µM [activator, single point]
O=S(=O)(NCC(c1ccco1)N1CCc2ccccc2C1)c1ccc(Br)cc1 (centres undefined)	inconclusive: 32.6 µM [activator, partial curve, poor fit]
CCN1C(=O)/C(=C/C=C2/CCCN2C)OC1=S	inconclusive: 10.3 µM [activator, partial curve, poor fit]
Cc1ccccc1Nc1nc(N)nc(COC(=O)c2ccco2)n1	inconclusive: 11.6 µM [activator, partial curve]
N#Cc1ccc(/C=C(\C(=O)C(=O)O)c2ccc3ccccc3n2)cc1	inconclusive: 4.61 µM [activator, partial curve]
Cc1cc(C)nc(Nc2nc3ccccc3[nH]2)n1	inconclusive: 6.51 µM [activator, full curve]
O=C(c1cccc(S(=O)(=O)N2CCc3ccccc3C2)c1)N1CCN(c2ccc(O)cc2)CC1	inactive
O=C(CSc1ncn(-c2ccccc2)n1)c1cccs1	inconclusive: 14.6 µM [activator, partial curve]
CCc1cc2c(C)ccc(C)c2nc1SCC(=O)Nc1cc(C)on1	inconclusive: 3.98 µM [activator, partial curve, poor fit]
COc1ccc2nc(NC(=O)C3COc4ccccc4O3)sc2c1 (centres undefined)	inconclusive: 4.11 µM [activator, full curve]
O=C(c1cc(-c2cccc(O)c2)on1)N1CCCCCC1	active: 13 µM
O=C(Nc1nc2ccccc2s1)c1ccc(Cl)s1	active: 1.16 µM

— PubChem BioAssay AID504466 (National Center for Advancing Translational Sciences (NCATS), 2011)
